According to paper PMC4950114:
No constants are given. Whether binding was seen depends on the method and setting. Binding seen in cells or lysates may run through a third protein. Some results given as binding are weak or reduced against the parent protein; the word gives no strength. For some assays here: Where a sequence is shown, tags or fusion partners need not be part of it. Values belong to the binder of their own block, whether it stands above or below them.

By UniProt entry, the sequences of proteins in these tests, tags left out. Where a name states a change or a piece, a line headed by the entry shows the natural chain unless it says otherwise.
UniProt Q15286: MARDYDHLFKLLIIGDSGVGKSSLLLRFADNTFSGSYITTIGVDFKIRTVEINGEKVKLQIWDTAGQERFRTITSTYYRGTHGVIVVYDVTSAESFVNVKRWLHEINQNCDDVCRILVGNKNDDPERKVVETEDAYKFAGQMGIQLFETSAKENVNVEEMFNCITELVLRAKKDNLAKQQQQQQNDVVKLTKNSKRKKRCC

Tests used:
GFP-RAB35, Q15286 = assay: co-IP; HEK293T cells cotransfected with GFP-RAB35 and/or HA-MICAL1; lysates immunoprecipitated with anti-GFP antibody at 4 °C overnight, protein A + G agarose, immunoblot; settings: remark: other sources report otherwise
[1] = biological target: GFP-tagged RAB35 (DN), RAB35-S22N (UniProt Q15286); assay: co-IP; MCF-7 cells transfected with GFP-tagged RAB35 (WT), (DN) or (CA); immunoprecipitated with anti-GFP antibody, immunoblot for RAB35 and endogenous MICAL1
[2] = biological target: GFP-tagged RAB35 (CA), RAB35-Q67L (UniProt Q15286); assay: as above
[3] = biological target: endogenous RAB35 (human (endogenous in MCF-7 and MDA-MB-231)), Q15286; assay: co-IP; endogenous RAB35 and endogenous MICAL1 in lysates of MDA-MB-231 and MCF-7 cells; which protein was precipitated is not told; settings: remark: other sources report otherwise
[4] = biological target: GFP-tagged RAB35 (WT), Q15286; assay: co-IP; MCF-7 cells transfected with GFP-tagged RAB35 (WT), (DN) or (CA); immunoprecipitated with anti-GFP antibody, immunoblot for RAB35 and endogenous MICAL1; settings: remark: other sources report otherwise

binding (GFP-RAB35, Q15286): binds
B1: HA-MICAL1, Q8TDZ2 1-1067 (protein)
chain: MASPTSTNPAHAHFESFLQAQLCQDVLSSFQELCGALGLEPGGGLPQYHKIKDQLNYWSAKSLWTKLDKRAGQPVYQQGRACTSTKCLVVGAGPCGLRVAVELALLGARVVLVEKRTKFSRHNVLHLWPFTIHDLRALGAKKFYGRFCTGTLDHISIRQLQLLLLKVALLLGVEIHWGVTFTGLQPPPRKGSGWRAQLQPNPPAQLANYEFDVLISAAGGKFVPEGFKVREMRGKLAIGITANFVNGRTVEETQVPEISGVARIYNQSFFQSLLKATGIDLENIVYYKDDTHYFVMTAKKQCLLRLGVLRQDWPDTNRLLGSANVVPEALQRFTRAAADFATHGKLGKLEFAQDAHGQPDVSAFDFTSMMRAESSARVQEKHGARLLLGLVGDCLVEPFWPLGTGVARGFLAAFDAAWMVKRWAEGAESLEVLAERESLYQLLSQTSPENMHRNVAQYGLDPATRYPNLNLRAVTPNQVRDLYDVLAKEPVQRNNDKTDTGMPATGSAGTQEELLRWCQEQTAGYPGVHVSDLSSSWADGLALCALVYRLQPGLLEPSELQGLGALEATAWALKVAENELGITPVVSAQAVVAGSDPLGLIAYLSHFHSAFKSMAHSPGPVSQASPGTSSAVLFLSKLQRTLQRSRAKENAEDAGGKKLRLEMEAETPSTEVPPDPEPGVPLTPPSQHQEAGAGDLCALCGEHLYVLERLCVNGHFFHRSCFRCHTCEATLWPGGYEQHPGDGHFYCLQHLPQTDHKAEGSDRGPESPELPTPSENSMPPGLSTPTASQEGAGPVPDPSQPTRRQIRLSSPERQRLSSLNLTPDPEMEPPPKPPRSCSALARHALESSFVGWGLPVQSPQALVAMEKEEKESPFSSEEEEEDVPLDSDVEQALQTFAKTSGTMNNYPTWRRTLLRRAKEEEMKRFCKAQTIQRRLNEIEAALRELEAEGVKLELALRRQSSSPEQQKKLWVGQLLQLVDKKNSLVAEEAELMITVQELNLEEKQWQLDQELRGYMNREENLKTAADRQAEDQVLRKLVDLVNQRDALIRFQEERRLSELALGTGAQG

binding [1]: no binding | binding [2]: binds
B2: endogenous MICAL1 (protein, UniProt Q8TDZ2 1-1067)
chain: B1 chain

binding [3]: binds | binding [4]: binds
B3: endogenous MICAL1, Q8TDZ2 1-1067 (protein)
chain: B1 chain
